± gives the standard deviation of the averaged measurements. The list shows a part of the results.
Each sequence was assayed on PfAP2-G AP2 domain (GST-tagged) (assay: gcPBM binding intensity (ln(normalized median fluorescence intensity)); higher = stronger DNA binding).
In short: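 Binding of GST-tagged P. falciparum DNA-binding domains, expressed in E. coli and used at about 25 μg on average, was carried out for 1 h in 1× PBS containing 1% milk, 0.2 mg/ml BSA, 0.5% salmon testes DNA and 0.03% Triton X-100. The target was an Agilent 4 × 180k array of primer-extended double-stranded 36-bp intergenic genomic probes plus negative controls, read with Alexa488 anti-GST antibody at 488 nm. Binding intensity is the highest Masliner-normalised natural-log median intensity across replicate spots of either probe orientation.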

Row | Sequence | gcPBM binding intensity (ln)
1 | CTTATGTGTATAAGTAGTACTAAATTAAAATAATAT [XGTACX_site2681] | 11.4 ± 0.88
2 | ATATGTAATAATAAATGTACGAAACATTGAACGATG [XGTACX_site1266] | 10.8 ± 0.42
3 | TTTTTATATATCACGTGTACATATTTATTTTTACTC [XGTACX_site8049] | 11.5 ± 0.81
4 | GAATCATCCAAAATTGCATGCAAGGAAGAAGAAAAA [TGCATGCA_site764] | 9.9 ± 0.25
5 | CATATATACATATATACACACATATATATATATATA [CACACA_site645] | 10.1 ± 0.48
6 | ATATATTTATAATACACATGCAATGATATAATATAT [TGCATGCA_site20] | 9.895 ± 0.078
7 | TTTTTTTTTCTGTGAGTGCATGTAATAAAATAAATT [GTGCAC_site9740] | 10.3 ± 0.35
8 | GTAAGAAAGAAAGGAAGTACGTAAGAAAGTAAGAAC [XGTACX_site1239] | 11.2 ± 0.62
9 | GTGTGGTTACAGACACGAACACATTTTTTAAATATT [CACACA_negctrl_site83] | 10.6 ± 0.37
10 | TATATATATTATATAGTGCATTGAAGAAGGGGATTT | 9.85 ± 0.24
11 | TTTATATGTTTAAAATGTACATGTGGTAAAAATTTT [XGTACX_site5907] | 11.2 ± 0.61
12 | GGGAGGATATTACACAGTACCCAGAAAATCTACGGA [XGTACX_site2551] | 11 ± 0.68
13 | CATATTTGTTGACACACACACATATTTATATAAATA [CACACA_site7648] | 10.5 ± 0.33
14 | ATATATAAACTGAAGGGTACAATGAAAAAAGAACTT [XGTACX_site7219] | 11.2 ± 0.88
15 | TAGGATTTTTAGTTTATTGTAACTATTATTTTATTT [CACACA_negctrl_site829] | 9.87 ± 0.099
16 | CCCATTATTGTTGGGGGTACAATTTTGAATATATAT [XGTACX_site2227] | 11.5 ± 0.84
17 | TATTCCTTATTATAATTCTTAAATAAAAAAAAAAAA [TGCATGCA_negctrl_site45] | 9.79 ± 0.41
18 | AAATATATGAATAAATGTACGAAATGAATGGATGAA [XGTACX_site7108] | 10.7 ± 0.21
19 | AAACATGTATTTTATTGTACACATTCATAAATCACA [XGTACX_site1420] | 11.5 ± 0.93
20 | TTATAATCTTATATATGTACATATATATATTATTAT [XGTACX_site7780] | 11.2 ± 0.86
21 | TTAATTAGAAATCATACACACATATATATATATATA [CACACA_site173] | 10.2 ± 0.58
22 | AAAAAAAAAAAAAAACTTACGATTTTAAAAAGATGG [GTGCAC_negctrl_site291] | 9.66 ± 0.57

Row | Sequence | gcPBM binding intensity (ln)
23 | GAAATGTACAAATACGTACACACATATATATATATA [CACACA_site1541] | 11.6 ± 0.99
24 | GCAAAATATTTAAAATAATATATGTGTATATTTTTA [GTGCAC_negctrl_site149] | 9.705 ± 0.035
25 | TTTATATTGTTTTATTGTACATATATATTTATACAT [XGTACX_site6821] | 11.1 ± 0.64
26 | CATTCAAACAAAAAAAGTACTCATCACATAATATAT [XGTACX_site1251] | 11.4 ± 0.95
27 | AGACCTTTAATTTGTGTGCACATAATTAGTGTACAT [GTGCAC_site9434] | 11.5 ± 0.96
28 | ATTAAAAAAAAAAAAAGTACTTATAATTATACTCGT [XGTACX_site4852] | 11.3 ± 0.8
29 | GGAAGATGAAAAATAAAGCATGTGCTGTACAAACGA [CACACA_negctrl_site1625] | 10.8 ± 0.37
30 | AAATATTTATATGTTACACACTGTTGATAATTTTCT [CACACA_site1347] | 9.97 ± 0.057
31 | TTATATTATATATATGTGCACATTTTTAAACTTGGA | 10.4 ± 0.28
32 | ACAAATAAAAATATTACACACACTATTATATTGATA [CACACA_site1494] | 9.88 ± 0.085
33 | ACTTATTTCGATATGTGTACTTAATATATATATTTA [XGTACX_site6616] | 11.4 ± 0.83
34 | ATTTTTGTAATTATTTGTACACATTTATTTATGTGT [XGTACX_site1864] | 11.5 ± 0.73
35 | TAAAAATATAAATTTTGTACGTAAAAAATGGTTCTT [XGTACX_site1506] | 11.5 ± 0.93
36 | AAATAAAATAAAAACATGCACACTTTATTTTTTTTA [CACACA_site2800] | 9.91 ± 0.11
37 | AGAAGTTTAAAAAGCACACAAAAAAAAAAAAAAAGA [CACACA_site3309] | 10.1 ± 0.18
38 | AAAATCGTGTTCTGAATACACACTAATACAAAGTTG [CACACA_site3985] | 10.6 ± 0.37
39 | AAAAATACCTGAATATGTACATATGATCAATGGGCC [XGTACX_site887] | 10.9 ± 0.52
40 | ATTCATATATATTATACACACACATATATAAATATA [CACACA_site8228] | 9.995 ± 0.049
41 | TGACCGTTTTAAGAGTGTACAAAAAAAAAAAAAAAA [XGTACX_site4141] | 11 ± 0.83
42 | TATTCTATATAATAATGTACGTGATTTAAATTTTCA [XGTACX_site6650] | 11.2 ± 0.79
43 | TAACATATTAATAACATATTTATAATATATTAATAA [TGCATGCA_negctrl_site243] | 9.51 ± 0.18
44 | AAAAAAAAAAAAAAGGAACACACAAGTAACAATAAA [CACACA_site8792] | 10.4 ± 0.32

Row | Sequence | gcPBM binding intensity (ln)
45 | ATTCACATACATTACTTACACACCATATTAATATAT [CACACA_site459] | 10.29 ± 0.021
46 | TAAAAAATAAGATATACACACATATATATATATATA [CACACA_site2324] | 9.91 ± 0.4
47 | AATTATACTTCCTTCACACAGTTACATCATATATTA [CACACA_site5942] | 10.2 ± 0.2
48 | TATTTTGAAAAAGTTGCACACAAAATTTAAAAAAAA [CACACA_site8470] | 10.3 ± 0.3
49 | CATTTAAATTATAAGTGTACACGATCATATTTCATC [XGTACX_site349] | 11.6 ± 0.72
50 | ATAATGATATATTATAAACACACAAAGATGAATATA [CACACA_site8914] | 9.91 ± 0.14
51 | AAACAAAGAAAGAACACACATACACAATATACCTAC [CACACA_site2835] | 10.11 ± 0.057
52 | ATATATGTGTATGTATGTACTCATTTTTGTATATAT [XGTACX_site490] | 11.6 ± 1
53 | TTATATATTTATATTTGTACGTATAAATTTTTTTTT [XGTACX_site2833] | 11.5 ± 0.81
54 | GATGGAAGGTGAAAGCGTACTTATTATAGTAATATA [XGTACX_site303] | 11.1 ± 0.75
55 | AGGTACTTTTTTAAAACACACATATAATATATACAC [CACACA_site1065] | 11.2 ± 0.85
56 | TGTAATAATCTTACATGTACATACATATATTATATA [XGTACX_site4012] | 11 ± 0.47
57 | CCAACATTTTTTAGAAGTACATTTTTATATTTATTA [XGTACX_site5179] | 11.3 ± 0.83
58 | AAATAAAAACATAACAGTACAGTTAACATTTTTATA [XGTACX_site3479] | 10.7 ± 0.52
59 | TATATATATATATATGTACACACATATATACCTTTC [CACACA_site8854] | 11.3 ± 0.71
60 | TATATAATATATATAGTGCATAAGTTCAAAAGAATA [GTGCAC_site9805] | 10.1 ± 0.14
61 | GCATATTTTATAATTTTACACACCATATAAAATAAT [CACACA_site8904] | 10.12 ± 0.042
62 | TACATATTTTTTATGTGTACATATTTTTTATGTGTA [XGTACX_site443] | 11.4 ± 0.76
63 | ACAATCCTAACGACATGTACAAATATATATATTTTT [XGTACX_site7335] | 10.7 ± 0.42
64 | TACATTCATGTGTATTGTACAAACTATTTTATAATA [XGTACX_site7744] | 10.8 ± 0.45
65 | TTATATGCATAAAAACGTACAAAAATGTATTCATGT [XGTACX_site2215] | 11.2 ± 0.83
66 | TTTTTTTTTTTTTCAAGTACATAACTTACCCCTTTT [XGTACX_site6207] | 11.2 ± 0.96

Row | Sequence | gcPBM binding intensity (ln)
67 | AAACGATTACTGTGTACACACATAGTTATAAACATA [CACACA_site5195] | 11.5 ± 0.72
68 | GAATGTTAACGTTGCACACAAAAAAAAAGTATACAT [CACACA_site2415] | 10.4 ± 0.26
69 | TTACATAATATATGTACACACGCAAATACTTAGAAT [CACACA_site320] | 11.5 ± 0.86
70 | GTTATAGAAGCATTCACACACACACCCACATACACA [CACACA_site1465] | 10.5 ± 0.61
71 | TTTTTTAATAATAGGAAAATGAATATTATATCGAAT [TGCATGCA_negctrl_site543] | 9.61 ± 0.26
72 | AGGATATGCAGACACACACACATATATATATATATA [CACACA_site2201] | 10.4 ± 0.64
73 | ATATATATATTCCACACACACACAAAAAAAAAAAAA [CACACA_site3648] | 10.1 ± 0.71
74 | TTTTTTTTTTTTTTTGCACACAGGGTGTAGGACAAG [CACACA_site2842] | 11 ± 1
75 | TTATAATATCTATATATCTTTTACATTTATAAGTTT [CACACA_negctrl_site1473] | 9.58 ± 0.38
76 | TATAATAATATTAACACACGTACAAAAGCAAACAAC [CACACA_site3494] | 11.4 ± 0.79
77 | CATTTGATAAGATACACACACAAGGAAAAAAATAAA [CACACA_site350] | 10.4 ± 0.22
78 | TGCAGTCTGGAGAAAAGTACATAGTATCTGGTATCT [XGTACX_site2545] | 11.3 ± 0.98
79 | TATGGTGTAATTTAGTGTATTATATTATTTTGGTTG [GTGCAC_negctrl_site445] | 10.05 ± 0.014
80 | GTCTATTCAAAAAAGTGTACGGACATATAAACATAC [XGTACX_site6516] | 11.6 ± 0.83
81 | TTAGCTATGATATATACACACCAACGAACGAAGAAA [CACACA_site6657] | 10.1 ± 0.19
82 | AAAGATGTTATATATATGTATATATATATGTAATAT [TGCATGCA_negctrl_site386] | 9.59 ± 0.16
83 | CATATAATTATATATCGTACATATTAATATAATTAC [XGTACX_site401] | 10.8 ± 0.54
84 | AGTATACAGATATATACACACATATATTTATTTATA [CACACA_site6279] | 9.81 ± 0.071
85 | ATTTATTTATTTATTTGTACATATAAATATATCAAA [XGTACX_site7383] | 10.8 ± 0.49
86 | TATATTTATTTATACACATGCATATTTTAAGGGCTC [TGCATGCA_site885] | 9.965 ± 0.021
87 | ATATATATATATATATGTACTTATAAGGTATATTTA [XGTACX_site3327] | 11.1 ± 0.68
88 | AGATATAGGAAAATAATATATATATATTTTTTTTTT [CACACA_negctrl_site461] | 9.54 ± 0.15
